# Test results published in the supplement of paper PMC3334620.
# The full ranking holds about 33,000 sequences; the median of “E-score (-0.5 to 0.5)” is about -0.036, and the highest 2% start at about 0.37. Some of the results follow.
# Target: T1, Yer064c (UniProt P40041)
# T1 sequence: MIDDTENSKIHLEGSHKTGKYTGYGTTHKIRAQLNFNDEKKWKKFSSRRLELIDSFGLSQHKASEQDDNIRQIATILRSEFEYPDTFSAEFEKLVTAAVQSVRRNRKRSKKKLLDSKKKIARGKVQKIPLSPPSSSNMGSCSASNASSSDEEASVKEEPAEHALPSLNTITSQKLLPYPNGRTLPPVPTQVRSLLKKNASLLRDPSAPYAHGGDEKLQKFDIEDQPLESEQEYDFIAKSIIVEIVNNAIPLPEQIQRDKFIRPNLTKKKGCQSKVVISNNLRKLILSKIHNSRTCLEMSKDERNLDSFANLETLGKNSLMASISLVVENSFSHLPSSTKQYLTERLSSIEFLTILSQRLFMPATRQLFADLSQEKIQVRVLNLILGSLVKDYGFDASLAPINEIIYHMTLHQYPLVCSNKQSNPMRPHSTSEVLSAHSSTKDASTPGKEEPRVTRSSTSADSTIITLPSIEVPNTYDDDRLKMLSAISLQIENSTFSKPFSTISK
# Assay: PBM E-score (8-mer binding enrichment) (E-score (-0.5 to 0.5)); higher = stronger / more preferred TF binding; most listed sequences are background and not binding sites
# Details: protein concentration: 200 nM; construct: GST-full length
# In short: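 For each ungapped eight-base word taken together with its reverse complement, the Universal PBM Analysis Suite assigned an E-score. Binding data came from GST-tagged yeast transcription factors, applied at about 100-200 nM, on universal all-10-mer Agilent arrays made double-stranded by primer extension. Fluorescent anti-GST marked bound protein, and scans were normalised with masliner.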
row,Sequence,PBM E-score
1,GCAAACTA,-0.0524
2,CAGAAACA,-0.119
3,AATCCGAT,0.199
4,CCAGTGTC,-0.0118
5,GGACTGAA,0.109
6,AGCGGTTC,-0.119
7,ACACCTAA,0.0546
8,ACGGAATG,-0.162
9,ACAGATGA,0.0984
10,AACACCCT,0.0248
11,AAACCAGA,0.055
12,ACGGGGAA,-0.0407
13,AGCGATGC,-0.322
14,ATTGGTAA,-0.0186
15,GCGTGGCC,-0.336
16,AGAATCAT,0.44
17,ACAAGTGC,-0.0107
18,CGGCCTTA,-0.0403
19,CTCGAGCA,0.0568
20,CTTCATCC,-0.219
21,TTAATCAA,0.371
22,CCGAGACC,-0.217
23,GTACTATA,0.0662
24,CAGGAAAC,0.082
25,AACTTACG,-0.123

row,Sequence,PBM E-score
1,CATCACCC,-0.0525
2,GGAGCAAC,-0.186
3,ACAGCGCT,-0.0964
4,AAGTTGAC,0.268
5,AGCGAAGC,-0.183
6,GTGAAAAC,-0.151
7,CAAAAGCA,-0.0906
8,GAACCGAA,0.0189
9,GGGAAACC,-0.0566
10,AAATCCGG,-0.0403
11,CGGGGCTC,-0.306
12,AGGTAAAT,-0.00442
13,GGTGATAA,-0.111
14,CGTTAATC,0.349
15,CGAGGGGA,-0.132
16,ACCAACCT,-0.158
17,CTAAACAA,0.0295
18,ATCCCCCG,-0.223
19,GCTATTAC,-0.0358
20,GGATGCCA,-0.13
21,GGTCAGTA,-0.0314
22,GGGAATAC,-0.172
23,TAGCACTA,-0.0183
24,ACAGTCTA,-0.0414
25,CCACTTGA,-0.00241

row,Sequence,PBM E-score
1,CACTAGAG,0.0358
2,AGTCGCGG,0.365
3,TGCGGAAA,-0.173
4,ACGTTACA,0.151
5,CGGGCTAG,-0.217
6,GGTGGAAC,-0.257
7,TCTCGAAA,0.0754
8,AACAGCGG,-0.176
9,AGCTTTGC,-0.272
10,ACGAGAAA,0.123
11,AAGTCCCG,-0.228
12,AAATTGTC,-0.169
13,AAGTTAAT,0.284
14,ACATATCC,-0.11
15,ACTGTTCC,0.113
16,TAGATGCA,-0.109
17,GAGCCTCC,0.054
18,CCCTTCCA,-0.222
19,GATTGAAC,0.196
20,ACGATATC,0.0808
21,ACCCAACT,0.0803
22,CAATAAAC,0.0151
23,AATTGTTA,0.0306
24,AATGCTCG,-0.0768
25,CAAAAACA,-0.091

row,Sequence,PBM E-score
1,AACCCCGC,-0.154
2,CCAGCCTA,-0.0998
3,CCGTGTTC,0.0684
4,TACTCAAA,0.201
5,ACTTTGCA,0.106
6,ACCGATCA,0.133
7,ATTGGTAC,-0.13
8,TACATGCA,-0.169
9,AACGAATC,0.266
10,AGTCCCAT,0.249
11,TCTGTCCA,-0.0581
12,GAACCCTA,-0.0228
13,AGAGTTTC,-0.0636
14,CAGGAGTA,0.0894
15,CGGATTTC,-0.156
16,AAATCTCG,0.00944
17,TCAGGGGA,0.0738
18,CCACCTTC,-0.153
19,CCCCGCAA,-0.218
20,CCTCTCAA,-0.103
21,CAGTGAGG,-0.0837
22,GGTTCGAA,0.164
23,ACAAGCAG,-0.156
24,CACTTGCG,-0.0335
25,ATGTGCGC,-0.168

row,Sequence,PBM E-score
1,CGCTCGGC,-0.203
2,CCCGACCA,-0.136
3,AGGCGTAG,-0.237
4,CGGCTTCA,-0.033
5,CAGTGGAG,0.0756
6,GTCCGCAC,0.0458
7,GATGAGCA,0.189
8,CAATTGCA,-0.187
9,ACGGACGT,-0.244
10,AATAGAAA,-0.119
11,CACAAAGC,-0.00986
12,GTTGATTA,0.381
13,CAGCACAA,0.0362
14,ACGGGGCT,-0.209
15,CTAATCAG,0.286
16,TATCTACA,0.093
17,CCGCCATC,-0.0589
18,GAGGTAAC,-0.0374
19,ACAAGAAC,0.0777
20,CGCGGCCA,-0.182
21,AATGGCTG,-0.057
22,AGAACTTG,0.0785
23,CATCCTCC,-0.162
24,GTAGCTTA,-0.0474
25,ATCATTAC,0.219

row,Sequence,PBM E-score
1,ATTACTCG,0.202
2,ATACTGTG,-0.0156
3,ATGTGAGA,0.151
4,CGTGGCTC,0.131
5,CAACCCTA,-0.177
6,ATAGTCGC,0.389
7,CCTCGCCC,-0.0406
8,CCGCATTC,-0.08
9,ACCACTCA,0.127
10,AAGCCAGC,-0.181
11,CCGGCCTA,-0.0915
12,CTTCTATC,-0.185
13,GCACATGC,-0.15
14,GATTAGAC,0.201
15,AGCGGACC,-0.111
16,CCGGATTA,-0.0124
17,GGTGCTAC,-0.273
18,CGTACATC,-0.162
19,ATGAGGGG,-0.125
20,ATACTCAC,0.312
21,GAGTAAGC,-0.0288
22,CATAAACG,-0.0361
23,ACACATCG,0.158
24,ATTGCTTA,0.0262
25,ACCAGAAT,-0.0478

row,Sequence,PBM E-score
1,CTGTCGCA,-0.172
2,ATAACGGC,-0.188
3,CAGCTTAG,-0.175
4,ATTTGCAC,-0.204
5,CCACAGCG,-0.0572
6,GCCCGCCA,-0.295
7,GGCGTCAA,-0.096
8,ATTTTGTG,0.129
9,ACCCGCAT,0.126
10,CCTTGATC,0.00176
11,CGCCCCAG,-0.056
12,ACATGAAG,-0.0539
13,CACAATGG,0.0125
14,CATCATTA,0.161
15,AGCGGCGG,-0.0218
16,AGCATATA,0.0717
17,GAGCATGC,-0.063
18,TTATATAA,0.303
19,CTCTACAA,0.032
20,GGGTCAGA,0.00219
21,AGATACAA,0.0771
22,CACCGAGA,-0.0636
